Source: ChEMBL document CHEMBL4888484, “Replenishing the malaria drug discovery pipeline: Screening and hit evaluation of the MMV Hit Generation Library 1 (HGL1) against asexual blood stage Plasmodium falciparum ,using a nano luciferase reporter read-out” (2022)
Hit rate of the full screen: of about 150,000 compounds, about 540 (0.36%) showed an effect of 50% or more. The list shows a part of the results.

These compounds were tested on Plasmodium falciparum (assay: Primary screen in NF54 nanoGlo assay, in single point, at 2uM, 72h; a lower Z score goes with more inhibition). Settings: timepoint 72 hour.
Assay type: functional, Erythrocyte

Row | SMILES | % Inhibition [%] | Z score
1 | COc1ccc(CN2CCOC[C@@H]2C)nc1 | -3 | 0.47
2 | COC(=O)[C@@H](O)C1CCN(Cc2ccc3ccccc3n2)CC1 | -11 | 0.92
3 | CCCc1nc(CN[C@H]2CCN(C(=O)OCC)C2)cs1 | -7 | 1.19
4 | O=C(COc1ccccc1)Nc1ccc(S(=O)(=O)N2CCc3ccccc32)cc1 | -5 | 0.65
5 | CC(C)n1nnnc1Cn1cnn(C(C)(C)C)c1=O | -16 | 1.41
6 | Cc1noc2ncc(NC(=O)Cc3cccnc3)cc12 | 14 | -1.96
7 | Cn1nccc1C(=O)N(C1CCCCC1)C1CCCCC1 | 40 | -5.35
8 | CN(C)[C@@H](C(=O)NCC1=CCCCC1)c1ccc2c(c1)OCO2 | 9 | -1.22
9 | O=S(=O)(C[C@H]1CCCO1)Nc1cccc(Cl)c1F | 8 | -1.54
10 | O=c1ccc(F)cn1CCC1OCCO1 | -7 | 1.25
11 | CC(C)(CNC(=O)[C@H]1CCn2cncc2C1)C1CCCCC1 | 1 | -0.09
12 | Cc1ncc(NC(=O)c2scnc2C)c(C2CC2)n1 | -18 | 1.78
13 | O=C([C@@H]1Cn2cccc2C(=O)N1Cc1cccnc1)N1CCN(c2ncccn2)CC1 | -2 | 0.26
14 | COc1cccc(CCC(=O)N[C@H]2CNCCC2(F)F)c1F | -4 | 0.81
15 | Cc1c(Cl)cccc1NC(=O)CCn1c(=O)cc(C(F)(F)F)c2cn(C(C)C)nc21 | 33 | -3.73
16 | CCCOC[C@H]1CCN(CC(=O)N2CCCCC2)C1 | -6 | 0.67
17 | CCCCN(CC(N)=O)C(=O)c1ccc(C(F)(F)F)nc1 | -8 | 1.28
18 | CCOCCO[C@H]1CCN(C(=O)c2cnccn2)C1 | 7 | -1.33
19 | CN1Cc2ccc(NC(=O)C(=O)Nc3ccc(C#N)cc3)cc2C1 | -24 | 2.14
20 | Cc1ncc2c(c1-c1nc(-c3ccc(F)cc3)cs1)CCC2 | -3 | 0.43
21 | Cc1ccc(NS(=O)(=O)c2c(C)[nH]c(C)c2-c2nc(C3CC3)no2)c(Cl)c1 | -14 | 2.7
22 | COc1ccc(-c2ccc(C(=O)NC3CC3)o2)c(C)c1 | -17 | 1.79
23 | c1ccc(CN2CCC(Nc3ncnc4c3cnn4-c3ccccc3)CC2)cc1 | -5 | 0.99
24 | Nc1c2c(-c3ccc(F)cc3)nc(N3CCN(c4ccc(Cl)c(Cl)c4)CC3)nc2nn1-c1ccc(Cl)cc1 | -4 | 0.51
25 | COc1ccc(NC(=O)c2ccc3nc(-c4ccccc4)cn3c2)cc1 | 0 | 0.04
26 | O=C1N=Nc2c3ccccc3c(O)c3c(N4CCCCC4)ccc1c23 | -11 | 1.2
27 | CCN(CC)CCN(C)C(=O)CC(=O)Nc1ccc(C)cc1C | 2 | -0.29
28 | COc1cc(N2CCO[C@H](C(=O)N(C)C)C2)nc(N)n1 | -15 | 2.24

Row | SMILES | % Inhibition [%] | Z score
29 | COC[C@H]1CCCCN1C(=O)c1coc(COc2ccccc2)n1 | -1 | 0.21
30 | CC(F)(F)c1ccc(CNC[C@H](O)c2ccc(F)cn2)cc1 | -14 | 2.42
31 | Cc1ccc(C)c(-c2cc3c(=O)n(Cc4nc(-c5ccccc5)no4)ncn3n2)c1 | -12 | 1.51
32 | Cc1noc(CCNC(=O)N2CC=C(c3c(C)[nH]c4ccccc34)CC2)n1 | 3 | -0.49
33 | Cc1ccccc1C1CN(C(=O)C(C)C)CC1C(=O)NCCC(C)C (stereo not given) | -6 | 1.04
34 | COCc1noc([C@@H]2CN(Cc3ccc(C#N)cc3)C[C@H]2COC)n1 | -11 | 1.88
35 | CCNc1ncc(CN2CCC(Oc3ccccc3)(C(=O)O)CC2)cn1 | -8 | 0.99
36 | Cc1nc(CNC(=O)COc2c(C)cccc2C)cs1 | -9 | 1.5
37 | CC(C)N1C(=O)CN(C(=O)c2ccc(OC(F)F)nc2)CC1(C)C | -11 | 2.04
38 | COc1ccccc1CN(Cc1nc2ccccc2n1C)C1CC1 | 3 | -0.58
39 | C[C@H]1CCc2n[nH]c(C(=O)NC3(c4ncccn4)CCOCC3)c2C1 | 2 | -0.37
40 | O=C(c1ccc(-c2noc(C(F)(F)F)n2)cc1)N1CC[C@@](O)(C(F)(F)F)C1 | -12 | 1.64
41 | CCC(=O)N1CCc2ccc(OC(CC)C(=O)NC3CC3)cc2C1c1cccc(F)c1 (stereo not given) | -16 | 1.59
42 | Cc1cccc(S(=O)(=O)N[C@H](C(=O)O)C(C)C)c1F | -12 | 1.57
43 | CCS(=O)(=O)N1CCCc2cc(C(=O)NCCc3ccccc3)ccc21 | -6 | 0.86
44 | CCCCOC1CC(NCC(=O)N2CCCCCC2)C1(C)C (stereo not given) | -6 | 0.58
45 | O=C(c1ccc2c(c1)CN(C(=O)c1ccsc1)CCO2)N1CCOCC1 | -5 | 0.69
46 | CC(C)(CNC(=O)N[C@H]1C[C@H]1C(F)F)c1ccc2ccccc2c1 | 17 | -2.26
47 | COc1ccc(CN(C(=O)c2cccnc2)C2CC2)c(OC)c1 | -8 | 0.7
48 | Cc1nsc(C(=O)NCCOC[C@H]2CCOC2)c1N | -3 | 0.7
49 | Cn1c(=O)c2c(ncn2CC(=O)N2CCN(Cc3ccc(Cl)s3)CC2)n(C)c1=O | -9 | 0.72
50 | Cc1ccc(C(N)=O)c(N2CCC(n3cc(Cc4ccccc4)nn3)CC2)n1 | 10 | -1.33
51 | CC(C)OC[C@H]1CN(c2nc(-c3cccnc3)cs2)CCO1 | 2 | -0.29
52 | COc1ccc(NC(=O)c2ccc(F)cc2F)cc1N1CCCN(Cc2cccc(Cl)c2)C1=O | 4 | -0.85
53 | Cc1ccccc1C1CN(CC(C)C)CC1CN(C(=O)c1ccc(F)cc1)C1CCCCC1 (stereo not given) | -11 | 1.95
54 | CCc1nsc(NC(C)C(C)C(=O)Nc2ncccc2O)n1 (stereo not given) | -2 | 0.21
55 | COc1nc(C)cc(C)c1CNC(=O)Cc1c[nH]c(=O)n(C)c1=O | 1 | -0.21
